The other results are listed elsewhere or left out. Repeats are few or missing, and single values can be far off.
Tested on: SkMel30
Assay: cell count relative to DMSO control; melanoma cells; higher = more viable cells
Conditions: library dose: low library concentration; 72 h
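Note: cell number obtained by counting DAPI-stained nuclei in high-throughput microscope images with image analysis software, screen run in 1,536-well plates.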

Compound	cell count [%]
COCC[n+]1c2c(n(Cc3cnccn3)c1C)C(=O)c1ccccc1C2=O + COc1ccc2c(c1)CCC1C2CCC2(C)C(NCCCCCCN3C(=O)C=CC3=O)CCC12 [U73122] (first compound 0.0004 µM, partner dose 0.4 µM)	80.3
Nc1cccc2c1CN(C1CCC(=O)NC1=O)C2=O (stereo not drawn) [lenalidomide] + CCCCCCCCCCCC1=C(O)C(=O)C=C(O)C1=O [Embelin] (first compound 1 µM, partner dose 1.2 µM)	109
O=C(CCCCCCC(=O)Nc1ccccc1)NO [vorinostat] + c1cc(-c2cnn3cc(-c4ccc(OCCN5CCCCC5)cc4)cnc23)ccn1 [Dorsomorphin] (first compound 0.08 µM, partner dose 0.4 µM)	110

Source: the supplement of paper PMC4604168 (melanoma cell lines)
